# Paper PMC12136788
# Some of the results follow.
# T1: UNK ZnF1-6 (called full-length) (human, UniProt Q9C0B0 30-357)
# T1 sequence: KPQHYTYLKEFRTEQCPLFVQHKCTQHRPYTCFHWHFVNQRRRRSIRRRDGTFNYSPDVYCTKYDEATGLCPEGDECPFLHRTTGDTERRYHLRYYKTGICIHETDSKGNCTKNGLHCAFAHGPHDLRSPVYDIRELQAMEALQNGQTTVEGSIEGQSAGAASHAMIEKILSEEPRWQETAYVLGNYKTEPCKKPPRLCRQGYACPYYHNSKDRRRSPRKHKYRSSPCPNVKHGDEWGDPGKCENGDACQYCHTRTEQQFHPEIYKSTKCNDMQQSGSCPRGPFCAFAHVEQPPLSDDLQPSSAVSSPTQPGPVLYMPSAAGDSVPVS
# B1: chr1:90712314:90712624:-|CDS|ENSG00000143032|control|control|control (ssRNA)
# RNA: GGGAGUUCUACAGUCCGACGAUCUCCAGCACCCCAUCCCCAGCUGCAGCGGCCCCUGGUGCCCCGUGUGCUCAUCCACGGCCUAGGGCCUGGGGGACAGCCAGCCCUUAAUCCAUUGUCCAGCCCCAUCCCAGGCACCCCACACAACAGAGGAUUGAGCAUCA
# B2: ENSG00000107863:be:win_6351|3pUTR|ENSG00000107863|bound_else_gene|NA|bound_elsewhere_windowed (ssRNA)
# RNA: GGGAGUUCUACAGUCCGACGAUCGAACUUCCAUUCUUUAGUCAUUCCAGGUGGAUCUGAGUUUUAUAUUCAAACUUUUAAUACAGUUUUUGAGUUUUGUGUGACUUGAAUUUUUAAUCUUUCUGUAAAAUACGUAACUUAAAUCAACAGAGGAUUGAGCAUCA
# B3: ENSG00000070961:be:win_451|CDS|ENSG00000070961|bound_else_gene|NA|bound_elsewhere_windowed (ssRNA)
# RNA: GGGAGUUCUACAGUCCGACGAUCACUGGUUGGAUUGAAGGAGCUGCAAUCCUCUUGUCUGUAGUGUGUGUGGUGUUAGUAACAGCUUUCAAUGACUGGAGUAAGGAAAAACAGUUUAGAGGUUUGCAGAGCCGAAUUGAACAACAACAGAGGAUUGAGCAUCA
# B4: chr4:68227913:68228072:-|CDS|ENSG00000185873|control|control|control (ssRNA)
# RNA: GGGAGUUCUACAGUCCGACGAUCUGAUUCUGGUGGACCACUAGCUUACCCUGAUUCCAGAAAUAUCUGGCAUCUUGUUGGAAUAGUAAGCUGGGGUGAUGGAUGUGGUAAAAAGAAUAAGCCAGGUGUCUAUACUCGAGUGACCAACAGAGGAUUGAGCAUCA
# B5: chr8:103332422:103332528:+|3pUTR|ENSG00000164930|msi1|FALSE|unique (ssRNA)
# RNA: GGGAGUUCUACAGUCCGACGAUCUUUUUUAACAUUUAGAAUAUUACAUUUUGUAUUAUACAGUACCUUUCUCAGACAUUUUGUAGAAUUCAUUUCGGCAGCUCACUAGGAUUUUGCUGAACAUUAAAAAGUGUGAUAGCGAUACAACAGAGGAUUGAGCAUCA
# B6: chr15:60347444:60347559:-|3pUTR|ENSG00000182718|msi1_unk|total|mutant (ssRNA)
# RNA: GGGAGUUCUACAGUCCGACGAUCUAACAGUCCCCGUGGCCAUCCCUGUGAGGGUGACGUCCGCAUUACCCCCAACCUCAUUUCCGUUGCCUAAGCAUUGCCUGGCCUUCCUGUCCCGUCUCUCCUGUAAGCCAAAGAAAUGAACAACAGAGGAUUGAGCAUCA
# B7: chr14:51255895:51255996:+|3pUTR|ENSG00000139921|msi1_unk|FALSE|overlapping (ssRNA)
# RNA: GGGAGUUCUACAGUCCGACGAUCGUGAAUCCAUUAGAUUUACAGUAUCGUAAUAUACAAGUUUUCUUUAAAGCCCUCUCCUUUAGAAUUUAAAAUAUUGUACCAUUGAAGAGUUUGGAUGUGUAACUUGUGAUGCCUUAGAAACAACAGAGGAUUGAGCAUCA
# B8: chr2:216672581:216672718:-|3pUTR|ENSG00000115461|msi1|FALSE|unique (ssRNA)
# RNA: GGGAGUUCUACAGUCCGACGAUCCACUCCACCAGUCCCCGGUCGCCAGCCGGAGUCUCCUCUCUACCGCCACUGUCACACCGUAGCCCACAUGGAUAGCACAGUUGUCAGACAAGAUUCCUUCAGAUUCCGAGUUGCCUACCGCAACAGAGGAUUGAGCAUCA
# B9: chr15:83017406:83017507:-|3pUTR|ENSG00000064726|msi1|FALSE|unique (ssRNA)
# RNA: GGGAGUUCUACAGUCCGACGAUCGGCCUAAUAAAAUGCCCAAGAAAAUAUUCAGUGCAUUUAUAGAGAAGGAUAUUUUGUAGUAGUAUAGUAAUGUGUUAUGUAGUACAGUUUUAAAGCUAUAAAUGGAAUUUUGUGUAAAUUCAACAGAGGAUUGAGCAUCA
# B10: chr1:36180537:36180567:+|3pUTR|ENSG00000116871|msi1_unk|FALSE|overlapping (ssRNA)
# RNA: GGGAGUUCUACAGUCCGACGAUCCAUACACACAUAUACACUCACAGCCUCUCUGGCCUCUUCCCUUGGGGAGGGGCCACCUGUAGUAUUUGCCUUGAUUUGGUGGGGUACAGUGGAUGUGAAUACUGUAAAUAGCUUGUGCUCCAACAGAGGAUUGAGCAUCA
# B11: chr1:1785892:1785993:-|3pUTR|ENSG00000078369|msi1|total|mutant (ssRNA)
# RNA: GGGAGUUCUACAGUCCGACGAUCUUUACUCUCCGAAUCGCAUGCUGCCGAAAUGCUCAAAAGUGCAUAUGGGACUCAGUCCUCCGGUGUUCUUUUUCUUUUAAGAAAUAACCUCUUACAGUUGUAACCAUUGCGGCUCUGUCCCAACAGAGGAUUGAGCAUCA
# B12: ENSG00000147536:stop:overlap|stop_codon|ENSG00000147536|stop_codon|NA|stop_codon (ssRNA)
# RNA: GGGAGUUCUACAGUCCGACGAUCUCCGCUACGUCCUCAGCAGCUACUUGCGGUGUCGCCUCAUGAAGUUCCCAAACCAGAUCUAGAUUCUUACGUGUUUCUGAGAGUGAGAGAACGACAAGAAAACAUACUGGUAGAACCAGACAACAGAGGAUUGAGCAUCA
# B13: chr2:121339258:121339359:-|3pUTR|ENSG00000074054|unk|total|mutant (ssRNA)
# RNA: GGGAGUUCUACAGUCCGACGAUCUUUUGAGAUUAAUUCUAAUAACGUAUUUGCUAUUGCAGUGCAGAGCCCACUGCAACUGCCCGGACUGAAAGCAGAGGCUGGGUGCCAGAGCACGUGAUUCUUAACAUCAUUUCCACAGACCAACAGAGGAUUGAGCAUCA
# B14: ENSG00000136731:stop:overlap|stop_codon|ENSG00000136731|stop_codon|NA|stop_codon (ssRNA)
# RNA: GGGAGUUCUACAGUCCGACGAUCCCAUUACAACCUCUCUUACAACAAAAUGGUUUUCCACUCCAUUGUUGUUAGAAGCCAGAUAGCAGCUGAUGAACCUCCACCAGAAGGAUGUAAUUCGUUUUUUUCAGUGCAUGGAAAGAACAACAGAGGAUUGAGCAUCA
# B15: ENSG00000124766:be:win_3201|3pUTR|ENSG00000124766|bound_else_gene|NA|bound_elsewhere_windowed (ssRNA)
# RNA: GGGAGUUCUACAGUCCGACGAUCUAAAUCGCUGUUUGGAUUUCCUGAUUUUAUAACAGGGCGGCUGGUUAAUAUCUCACACAGUUUAAAAAAUCAGCCCCUAAUUUCUCCAUGUUUACACUUCAAUCUGCAGGCUUCUUAAAGCAACAGAGGAUUGAGCAUCA
# B16: chr6:73641827:73641929:-|CDS|ENSG00000119899|unk|total|mutant (ssRNA)
# RNA: GGGAGUUCUACAGUCCGACGAUCGAGAAAAGAGCUGCUCUGUGAAGGUCUUAAAGGAUUGUUUUAUUCUUUUCUGAUUUUUGCCGGGUAAGAAGUACCAAUGGGAUGCAGAAACUCAAGGAUGGAUUCUCGGUUCCUUUUUUUCAACAGAGGAUUGAGCAUCA
# B17: chr2:128193554:128193655:+|3pUTR|ENSG00000136731|msi1|FALSE|unique (ssRNA)
# RNA: GGGAGUUCUACAGUCCGACGAUCCCUUGUCAAGGCUCUGCCUGAAUGAGUUUUCAUCUGAUUGUGGGGACCAAGUCCCUGAGUAGAGGGCCAAGAGCUAGGGACAGGGGGAAGAGACUGGCCCAGGUGGUAGGGAGGAAAGAACAACAGAGGAUUGAGCAUCA
# B18: chr8:23842113:23842214:-|3pUTR|ENSG00000159167|msi1|FALSE|unique (ssRNA)
# RNA: GGGAGUUCUACAGUCCGACGAUCACUUUAGACAUUUUUGUGCCAUUAUAUUUGCAUUAUGUAUUUAUAAUUUAAAUGAUAUUUAGGUUUUUGGCUGAGUACUGGAAUAAACAGUGAGCAUAUCUGGUAUAUGUCAUUAUUUAUCAACAGAGGAUUGAGCAUCA
# B19: chr5:136063637:136063821:+|3pUTR|ENSG00000120708|msi1|total|mutant (ssRNA)
# RNA: GGGAGUUCUACAGUCCGACGAUCUGUCAAAUGUGUCUCACAUCUACACGUGGCUUGGAGGCUUUUAUGGGGCCCUGUCCAGGCCGAAAAGAAAUGGUAUGCCGAGCUCCGAUUUCCCUAUUGUGACAGAGCCAUGGUGUGUUUCAACAGAGGAUUGAGCAUCA
# B20: chr12:62383855:62383964:+|CDS|ENSG00000135655|unk|FALSE|unique (ssRNA)
# RNA: GGGAGUUCUACAGUCCGACGAUCGGUAGGACGUUUUGCACCUCAGUUCUCUGGAUAUCAGCAGCAAGACUGUCAAGAACUGUUAGCUUUCCUAUUAGAUGGAUUACAUGAGGAUUUGAAUAGAAUUAGGAAAAAACCAUAUAUCAACAGAGGAUUGAGCAUCA
# B21: chrX:47636291:47636398:-|3pUTR|ENSG00000126767|unk|total|mutant (ssRNA)
# RNA: GGGAGUUCUACAGUCCGACGAUCGCCUGCCCUUGGGGAGAUGAGGGAGCCCUGUCUGCGUUUUUGGAUGUGAGCCGAAGAGUCCGUUUGUUUUGUUUUAUUAUUCCUGGCCAUACUCAGGGGUCCAGGAAGAAUUUGUACCAUCAACAGAGGAUUGAGCAUCA
# B22: chr1:151291320:151291421:+|3pUTR|ENSG00000143373|unk|total|mutant (ssRNA)
# RNA: GGGAGUUCUACAGUCCGACGAUCAAUAUUUUGUUAAUUCCUGUCUCUCCAACCUGAAGAAGAAGAGCAUUUGAGGAUUAUUCCCGUUAUUUGCAACCUCCCUUUGGGUUUGGCCCUGGAGUCCCCGCCGAGUGGACCCUCCAUCAACAGAGGAUUGAGCAUCA
# Target: T1, UNK ZnF1-6 (called full-length)
# Experiment: nsRBNS (natural sequence RNA bind-n-seq); RBNS binding buffer (assumed for nsRBNS): 25 mM Tris pH 7.5, 150 mM KCl, 3 mM MgCl2, 0.01% Triton X-100, 500 ug/ml BSA, 20 U/ml SUPERase-In, 4 C; UNK is unkempt and MSI1 is Musashi-1; names of the RNAs are library labels; protein concentration not given here; high values mean tight binding
row,Binder,binding signal [enrichment R]
1,B1,1.08
2,B2,3.82
3,B3,0.818
4,B4,0.568
5,B5,8.2
6,B6,0.662
7,B7,5.27
8,B8,0.869
9,B9,5.2
10,B10,0.629
11,B11,0.424
12,B12,33.9
13,B13,0.852
14,B14,0.651
15,B15,0.53
16,B16,0.386
17,B17,0.836
18,B18,3.25
19,B19,0.676
20,B20,5.69
21,B21,0.892
22,B22,0.725
